According to PMC12136788:
The list shows a part of the results.

T1: UNK ZnF1-3 (human, UniProt Q9C0B0 31-174)
T1 sequence: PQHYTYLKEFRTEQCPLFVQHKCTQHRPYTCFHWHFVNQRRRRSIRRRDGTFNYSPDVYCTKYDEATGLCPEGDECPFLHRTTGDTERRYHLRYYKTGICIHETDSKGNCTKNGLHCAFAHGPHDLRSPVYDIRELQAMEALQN

B1: chr4:99997923:99997924:-_ENSG00000197894_ENST00000296412|hu_hu|FALSE|FALSE (ssRNA)
RNA: GGGAGUUCUACAGUCCGACGAUCAGCACCAUAACCGGUUGAAAUGCCACAACCUAGAAGGCAGACUUUAUCCAAAGGUGCUAAAGGAUCUAUUUUAGCAACAGAGAUAUCAGCCACAACUGUGUAUUCAGAAAAUGUGCUGGUCAACAGAGGAUUGAGCAUCA
B2: chr22:32879901:32879902:+_ENSG00000100225_ENST00000397426|hu_mus|hu_hu_hu_mus_False|38_108 (ssRNA)
RNA: GGGAGUUCUACAGUCCGACGAUCCUCUGCCAUAUGCAUGGCAUCCUGAAUUGACUCAGCUUCAACAUUUUGACUAGGCCCUUCCAUACUGUCAUCAUUCCAAACACCAAAUGGGGUGGCCUGUCCUUGGGAUGAAUCAGUCCCCAACAGAGGAUUGAGCAUCA
B3: chr3:176740097:176740098:-_ENSG00000177565_ENST00000430069|hu_mus|hu_hu_hu_mus_True|1_18 (ssRNA)
RNA: GGGAGUUCUACAGUCCGACGAUCUGUUUUGUAUACCACAAAAGGAGGCACUUUCAGUAUCUGCAAAAGGUGUUUAGUCCUAAAACAUACUCACCUAGAGGAUAACUCAGGAAAACAUCAAUACAAUCUCUAAGACCUUAGGAACAACAGAGGAUUGAGCAUCA
B4: chr4:115894766:115894767:+_ENSMUSG00000028698_ENSMUST00000030464|mus_hu|mus_mus_mus_hu_True|18_68 (ssRNA)
RNA: GGGAGUUCUACAGUCCGACGAUCUUCCACACGGAAAUGUACUUCGGGUUUUCCAACGGCCAGUACCGUCCAGCCAAAACUACCCGAACAGGGUCCUCCCCCUCUCUCCUACAGAACUAAAGCACCCGCCCCCGAACUUUCAAGCAACAGAGGAUUGAGCAUCA
B5: chr4:103720638:103720639:-_ENSG00000109332_ENST00000394803|hu_mus|FALSE|FALSE (ssRNA)
RNA: GGGAGUUCUACAGUCCGACGAUCGAUCCGUGCAAUCUCUGGCACUAGGGGGUCGUCUGGGUUUGGAUCACAUAGCAGUGAACAAAUGGAUAAAAGAACUUUAGAAAUAGUUAAAGCAGGAGACCACUGUGAUCUUAGAAUAUCCAACAGAGGAUUGAGCAUCA
B6: chr19:26852702:26852703:+_ENSMUSG00000024921_ENSMUST00000025862|mus_hu|FALSE|FALSE (ssRNA)
RNA: GGGAGUUCUACAGUCCGACGAUCAUUACUGGAAUUUUAUUUGCCUCAGGCUUAUGACUUGCAACCAAAGACAUUGUGCAAAGAAAGCAAAGAUUAAGUACACUUUAGGGAGAAGGAGACGAUACACAUUGGUAACAUAGGAGACAACAGAGGAUUGAGCAUCA
B7: chr7:108143013:108143014:-_ENSG00000135241_ENST00000257694|hu_hu|FALSE|FALSE (ssRNA)
RNA: GGGAGUUCUACAGUCCGACGAUCGAGAAUUCGGAUUCCUCUCCCUUUCACUGGAUCCACAUAGCCAAUUAGGGCCAAAAUUUCUCUAACUGCAGCCUGAAGAGUUUCAUCCUUAAUUUGUCUCAGUCGUAAUAAAUAUGGAAUCAACAGAGGAUUGAGCAUCA
B8: chr9:59236566:59236567:-_ENSMUSG00000025234_ENSMUST00000171975|mus_mus|FALSE|FALSE (ssRNA)
RNA: GGGAGUUCUACAGUCCGACGAUCGUGCACAGUUUUCAUUUAUGAAGGAGCCGUUUUCCCACUGUUGUUUACCUUAAAAAAAAAAAAAACAAAACAAAAAACCCUCAACUCCCAAGUUGAUAGGUGCAUACCUGUAAUCCCAGUCAACAGAGGAUUGAGCAUCA
B9: chr11:60966614:60966615:-_ENSMUSG00000042506_ENSMUST00000041683|mus_hu|motif|central (ssRNA)
RNA: GGGAGUUCUACAGUCCGACGAUCACUGAGCAGUGAGUAGCAGCUGCCACUGUCACUACCCCCUCCCCAGCCCAGCCAGCGGAGGAGCUGGGUCUGGUCCCCACCAGCUUCUCCAUGGCCUGUGAGCUAAGAAUAGGUUUCACGCAACAGAGGAUUGAGCAUCA
B10: chr6:42636609:42636610:-_ENSMUSG00000036667_ENSMUST00000045054|mus_mus|motif|central (ssRNA)
RNA: GGGAGUUCUACAGUCCGACGAUCGGCAUCAAUGCAGUAAACCCCCAGGGAGUCAUUGACUUCUGGCUCAAUCUUUGACUCGGUUCCACAGCUCUCGAGAAUUUUCACCAAUGGUGCUAAAGAUGAGUGCACACCAAUGGCUGACAACAGAGGAUUGAGCAUCA
B11: chr11:80292881:80292882:+_ENSMUSG00000048895_ENSMUST00000053413|mus_mus|motif|central (ssRNA)
RNA: GGGAGUUCUACAGUCCGACGAUCCAGCUUAAAAUUAACAAUUGGGGGGGGGGGGCAGGGAUGGGAAACAGCAACACCCCGGUUGACUGAUCUCACCUCCCCCCAACGAUACAGAACAAAGAUCACGGGCACCAGCGAGAGGCCCAACAGAGGAUUGAGCAUCA
B12: chr2:153237265:153237266:-_ENSMUSG00000061411_ENSMUST00000109784|mus_mus|mus_mus_mus_hu_False|8_8 (ssRNA)
RNA: GGGAGUUCUACAGUCCGACGAUCAAAAAAAAAAAAAAAAAAGUGUCCUUGUGCCCAAAGUCUCAGGUGCUUGGAGUGUGGCUAGAAACAGCUCUUUUGGAUCCCACCUCUUUCAAAAACAAAAUGUCCAACUGGUGGAGGCAGCAACAGAGGAUUGAGCAUCA
B13: 31982884_31984648_436_CDS_ENSG00000101391_ENST00000346416|human|control|control (ssRNA)
RNA: GGGAGUUCUACAGUCCGACGAUCAUUCACAUUCAUCUGGCAGCCAUAGGUCUCGAGGUAGACUUUUCUCUGCCUUCCAAGAAGUUCAUCCAUCAUGAGAUAGGGAGGUGGGUCUUCCACUUCUGAAGACAGCUUCUCCUGAGGCAACAGAGGAUUGAGCAUCA
B14: 3712656_3714518_4735_CDS_ENSG00000110713_ENST00000324932|human|control|control (ssRNA)
RNA: GGGAGUUCUACAGUCCGACGAUCGCCAGAACCCUCCAGAUACGAAGGAAGUGGGGAGCAGGCAUAUCUGUCACUGUCAGAGGUAUUCUGAAAUGCUUCUUCAUACAUGCUGAGCGCCCUAGAAAUGGAGGCUGUUGGUGGAAGCAACAGAGGAUUGAGCAUCA

Target: T1, UNK ZnF1-3
Assay: nsRBNS (natural sequence RNA bind-n-seq); RBNS binding buffer (assumed for nsRBNS): 25 mM Tris pH 7.5, 150 mM KCl, 3 mM MgCl2, 0.01% Triton X-100, 500 ug/ml BSA, 20 U/ml SUPERase-In, 4 C; UNK is unkempt and MSI1 is Musashi-1; names of the RNAs are library labels; protein concentration not given here; high values mean tight binding

Binder	binding signal
B1	3.05 enrichment R
B2	0.754 enrichment R
B3	0.78 enrichment R
B4	1.19 enrichment R
B5	3.2 enrichment R
B6	1.34 enrichment R
B7	0.935 enrichment R
B8	2.36 enrichment R
B9	0.908 enrichment R
B10	1.07 enrichment R
B11	1.13 enrichment R
B12	3 enrichment R
B13	0.659 enrichment R
B14	1.37 enrichment R
